# By IC50 is meant the dose at which the fit gives 50% viability; a fit beyond the top or the lowest dose is shown as a bound at that dose. AUC, from the same fit, is the share of area under the viability curve across the 256-fold dose range: 1 means no effect, lower means more sensitive. A top dose marked as inferred was calculated from the reported fits.
# What was measured:
# Test in all cases: Viability of human cancer cell lines after 72 h of drug (GDSC screen)
# Lenalidomide = compound: Nc1cccc2c1CN(C1CCC(=O)NC1=O)C2=O [Lenalidomide]; details: top dose 5 µM; top dose inferred
# Experimental: (§1)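 Human cancer cell lines in 384-well plates, medium with 10% serum, drug for 72 h over a 256-fold dose range (nine 2-fold or five 4-fold steps up to the top dose). Adherent lines were fixed and stained with the nucleic acid dye Syto60, suspension lines read with resazurin; signal relative to control wells, capped at 0 and 100%. One two-parameter sigmoid per drug and line, fitted in a mixed model over all curves with the slope shared within a line.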
# SGC0946 = compound: CC(C)N(CCCNC(=O)Nc1ccc(C(C)(C)C)cc1)C[C@H]1O[C@@H](n2cc(Br)c3c(N)ncnc32)[C@H](O)[C@@H]1O [SGC0946]; details: top dose 0.5 µM; top dose inferred
# Experimental: as §1
# GW-2580 = compound: COc1ccc(COc2ccc(Cc3cnc(N)nc3N)cc2OC)cc1 [GW-2580]; details: top dose 20 µM; top dose inferred
# Experimental: as §1
Cell Line,AUC (Lenalidomide),IC50 (Lenalidomide) [µM],AUC (SGC0946),IC50 (SGC0946) [µM],AUC (GW-2580),IC50 (GW-2580) [µM]
"Hs746T (stomach, adherent)",0.981,> 5,0.978,> 0.5,0.949,> 20
"JHOS-2 (ovary, adherent)",0.979,> 5,0.976,> 0.5,0.983,> 20
"JHOS-3 (ovary, adherent)",0.984,> 5,0.982,> 0.5,0.975,> 20
"KYAE-1 (oesophagus, suspension)",0.967,> 5,0.981,> 0.5,0.985,> 20
"MC-IXC (neuroblastoma, adherent)",0.996,> 5,0.996,> 0.5,0.996,> 20
"MOLT-13 (T-cell lymphoblastic leukaemia, suspension)",0.973,> 5,0.988,> 0.5,0.989,> 20
"NB17 (neuroblastoma, adherent)",0.975,> 5,0.982,> 0.5,0.952,> 20
"NCC021 (kidney, adherent)",0.983,> 5,0.979,> 0.5,0.975,> 20
"NCI-H630 (large intestine, adherent)",0.976,> 5,0.987,> 0.5,0.978,> 20
"NCI-H2172 (non-small cell lung carcinoma, adherent)",0.982,> 5,0.979,> 0.5,0.982,> 20
"OACM5-1 (oesophagus, semi-adherent)",0.982,> 5,0.984,> 0.5,0.986,> 20
"OACp4C (oesophagus, adherent)",0.981,> 5,0.97,> 0.5,0.982,> 20
"OC-314 (ovary, adherent)",0.991,> 5,0.981,> 0.5,0.984,> 20
"OV-7 (ovary, adherent)",0.932,> 5,0.972,> 0.5,0.966,> 20
"OV-17R (ovary, adherent)",0.98,> 5,0.973,> 0.5,0.974,> 20
"OV-56 (ovary, adherent)",0.989,> 5,0.985,> 0.5,0.986,> 20
"OVCA420 (ovary, adherent)",0.976,> 5,0.979,> 0.5,0.98,> 20

Cell Line,AUC (Lenalidomide),IC50 (Lenalidomide) [µM],AUC (SGC0946),IC50 (SGC0946) [µM],AUC (GW-2580),IC50 (GW-2580) [µM]
"OVCA433 (ovary, adherent)",0.985,> 5,0.974,> 0.5,0.977,> 20
"OVK-18 (ovary, adherent)",0.926,> 5,0.984,> 0.5,0.985,> 20
"PEO1 (ovary, adherent)",0.987,> 5,0.985,> 0.5,0.969,> 20
"QGP-1 (pancreas, adherent)",0.968,> 5,0.977,> 0.5,0.968,> 20
"RCC-AB (kidney, adherent)",0.978,> 5,0.978,> 0.5,0.953,> 20
"RCC-ER (kidney, adherent)",0.986,> 5,0.963,> 0.5,0.979,> 20
"RCC-FG2 (kidney, adherent)",0.966,> 5,0.975,> 0.5,0.981,> 20
"RCC-JF (kidney, adherent)",0.98,> 5,0.978,> 0.5,0.981,> 20
"RCC-JW (kidney, adherent)",0.986,> 5,0.981,> 0.5,0.922,> 20
"RCC-MF (kidney, adherent)",0.98,> 5,0.953,> 0.5,0.903,> 20
"SK-GT-4 (oesophagus, adherent)",0.955,> 5,0.967,> 0.5,0.978,> 20
"SK-MEL-5 (melanoma, adherent)",0.919,> 5,0.974,> 0.5,0.977,> 20
"SK-MG-1 (glioma, adherent)",0.987,> 5,0.979,> 0.5,0.98,> 20
"SNU-61 (large intestine, adherent)",0.985,> 5,0.976,> 0.5,0.979,> 20
"SNU-81 (large intestine, adherent)",0.953,> 5,0.98,> 0.5,0.979,> 20
"SNU-407 (large intestine, adherent)",0.98,> 5,0.981,> 0.5,0.977,> 20
